According to patent US20240082393A1 (priority 2021, published 2024):

Test system: classical monocytes in PBMCs from healthy donors
From the text: Next, we determined whether there is a causal relationship between the observed reduction in H3K27ac histone acetylation and PADI4 levels, and the diminished cytokine production. […] Next, we asked whether inhibition of CBP/P300 and PADI4 has an impact on cytokine production.
Indeed, previous studies described a direct physical interaction and functional co-dependence between AP-1 and the histone acetyl transferases CBP/P300. To investigate whether AP-1 activity and histone acetylation are also functionally linked in classical monocytes, we conducted an ex-vivo stimulation experiment using the same specific inhibitors of histone acetylation and PADI activity as in FIG. 2. To gauge AP-1 activity, we used an intracellular antibody staining able to detect the activated, phosphorylated form of c-Jun.
In-vitro stimulation and intracellular flow cytometry experiments. Cryopreserved PBMCs were thawed, counted, and resuspended in RPMI 1640 (Corning, 10-040-CV) supplemented with 10% FBS (Corning, 35-011-CV) [complete media] at a concentration of 4×10^6 cells/mL. Next, 150 μL of cell suspension (6×10^5 cells) was added to each well of a 96-well round-bottomed tissue culture plate and mixed with 50 μL of inhibitor solution containing either Trichostatin A (TSA; CST, 9950S), A-485 (Tocris, 6387), or CI-Amidine (EMD Millipore, 506282) in complete media. After 2 h of incubation at 37 C and 5% CO2, the cells were stimulated by adding either LPS (0.025 μg/mL; Invivogen, tlrl-pb5lps) or R848 (4 μg/mL; Enzo Life Sciences, ALX-420-038-M005) to the cultures. After another 2 h of incubation, Brefeldin A (10 μg/mL; Sigma Aldrich, B7651-5MG) was added to all cultures and cells were incubated for a final 4 h. After a total of 8 h of incubation, cells were washed twice with 150 μL PBS (GE Life Sciences, SH30256.LS) and stained for viability using 100 μL of Zombie UV Fixable Viability Dye in PBS (1:1000; Biolegend, 423108). […] Data was analyzed using Flowjo X software (BD). […]

| Substance | global histone H3K27ac levels in classical monocytes | c-Jun activation (phospho-c-Jun) | frequency of IL-1b and TNFα positive monocytes / cytokine production |
| --- | --- | --- | --- |
| trichostatin A [TSA] | concentration-dependent increase |  |  |
| CI-Amidine |  | abolished c-Jun activation completely | complete abrogation |
